Experimental data from patent EP1042468B1.

Legend:
[1] = target: T1, human neuronal calcium channel α1D, α2 and β1 subunits (Homo sapiens, UniProt Q01668); assay: Two-electrode voltage clamp of oöcytes coinjected with α1D, α2 and β1 transcripts; assay type: cell-based; design: expressed in transfected cells; host or cells: Xenopus laevis oöcytes injected with in vitro transcripts (6 ng each)
[2] = target: T1, human neuronal calcium channel α1D, α2 and β1 subunits; assay: Whole-cell patch clamp of HEK 293 cells stably transfected with calcium channel subunits; details: 1 µM
[3] = tested on: HEK 293 cells (transiently transfected with the lacZ gene expression vector pCMVβgal only); assay: Whole-cell patch clamp of negative control HEK 293 cells; assay type: cell-based, Human; details: 1 µM; one cell with discernable current
[4] = target: T1, human neuronal calcium channel α1D, α2 and β1 subunits

T1 sequence (Q01668 whole entry): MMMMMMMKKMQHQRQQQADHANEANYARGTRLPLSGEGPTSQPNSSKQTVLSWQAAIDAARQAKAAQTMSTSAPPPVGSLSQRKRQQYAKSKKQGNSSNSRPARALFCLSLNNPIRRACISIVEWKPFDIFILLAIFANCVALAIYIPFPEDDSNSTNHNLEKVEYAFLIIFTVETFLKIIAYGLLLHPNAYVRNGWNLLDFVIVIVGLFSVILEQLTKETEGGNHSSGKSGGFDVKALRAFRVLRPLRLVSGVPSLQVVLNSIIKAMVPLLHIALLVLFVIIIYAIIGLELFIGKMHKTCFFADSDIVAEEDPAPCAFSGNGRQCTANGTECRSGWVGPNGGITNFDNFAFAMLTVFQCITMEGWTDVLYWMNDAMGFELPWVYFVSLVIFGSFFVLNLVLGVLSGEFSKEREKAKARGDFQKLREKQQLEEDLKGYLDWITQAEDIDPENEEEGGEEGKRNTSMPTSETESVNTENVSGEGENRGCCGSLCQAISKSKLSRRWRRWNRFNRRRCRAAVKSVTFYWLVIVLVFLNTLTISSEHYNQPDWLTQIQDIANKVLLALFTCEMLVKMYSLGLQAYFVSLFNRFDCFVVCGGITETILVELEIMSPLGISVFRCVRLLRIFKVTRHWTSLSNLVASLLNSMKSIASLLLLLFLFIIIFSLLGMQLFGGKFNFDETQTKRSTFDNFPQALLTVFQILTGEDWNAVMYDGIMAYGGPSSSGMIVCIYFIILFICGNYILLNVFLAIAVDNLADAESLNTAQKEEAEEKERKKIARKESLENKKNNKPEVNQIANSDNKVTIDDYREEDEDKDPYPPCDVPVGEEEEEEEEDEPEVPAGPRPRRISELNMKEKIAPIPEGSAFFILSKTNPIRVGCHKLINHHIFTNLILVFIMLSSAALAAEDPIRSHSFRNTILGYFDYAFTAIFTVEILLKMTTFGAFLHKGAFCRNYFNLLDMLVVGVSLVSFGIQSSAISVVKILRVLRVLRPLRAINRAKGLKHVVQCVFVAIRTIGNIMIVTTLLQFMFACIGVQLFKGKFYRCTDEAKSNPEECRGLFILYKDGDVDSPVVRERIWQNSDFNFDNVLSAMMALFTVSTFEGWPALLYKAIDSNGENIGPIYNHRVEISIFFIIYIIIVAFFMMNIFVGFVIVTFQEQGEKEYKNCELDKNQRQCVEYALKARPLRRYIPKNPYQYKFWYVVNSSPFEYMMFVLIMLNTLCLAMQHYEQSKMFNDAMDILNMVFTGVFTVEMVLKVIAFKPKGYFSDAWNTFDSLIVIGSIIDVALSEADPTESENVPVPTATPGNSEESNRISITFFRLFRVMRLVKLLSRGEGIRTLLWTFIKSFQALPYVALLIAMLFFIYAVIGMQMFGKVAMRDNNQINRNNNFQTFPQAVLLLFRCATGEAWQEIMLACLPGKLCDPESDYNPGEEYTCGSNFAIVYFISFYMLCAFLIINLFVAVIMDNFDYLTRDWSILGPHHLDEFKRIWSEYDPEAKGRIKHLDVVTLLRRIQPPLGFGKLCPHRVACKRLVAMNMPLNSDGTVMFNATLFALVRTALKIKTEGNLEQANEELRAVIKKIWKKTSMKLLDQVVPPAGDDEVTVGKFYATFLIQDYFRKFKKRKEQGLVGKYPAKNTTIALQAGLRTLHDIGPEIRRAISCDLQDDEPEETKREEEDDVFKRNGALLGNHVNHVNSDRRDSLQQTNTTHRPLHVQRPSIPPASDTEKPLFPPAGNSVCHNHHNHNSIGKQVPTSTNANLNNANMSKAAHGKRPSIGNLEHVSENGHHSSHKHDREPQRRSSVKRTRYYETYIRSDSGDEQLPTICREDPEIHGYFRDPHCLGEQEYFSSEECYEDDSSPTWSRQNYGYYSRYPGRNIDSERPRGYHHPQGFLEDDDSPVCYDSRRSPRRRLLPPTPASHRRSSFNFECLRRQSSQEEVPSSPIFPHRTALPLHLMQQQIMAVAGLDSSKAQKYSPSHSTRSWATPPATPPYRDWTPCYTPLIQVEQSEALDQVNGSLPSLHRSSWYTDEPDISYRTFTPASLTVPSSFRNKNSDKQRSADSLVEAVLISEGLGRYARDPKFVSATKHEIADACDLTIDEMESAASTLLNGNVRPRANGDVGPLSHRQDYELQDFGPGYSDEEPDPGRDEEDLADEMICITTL

## [Ni+2] [Ni^2+]
[1]; 100 µM
  inward barium current blocked: approximately 15%

## COC(=O)C1=C(C)NC(C)=C([N+](=O)[O-])C1c1ccccc1C(F)(F)F (centres unmarked) [Bay K 8644]
[2]
  shift of the entire current-voltage relation: about -10 mV
[2]; depolarized to -10 mV from -90 mV, approximately 35pA in the absence
  current during application: approximately 75 pA
[1]; oöcytes, 40 mM BaCl2 bath
  effect on currents (in words): increased the magnitude of the currents
[3]
  effect on inward barium current of control cell (in words): not affected
[4]; 1 µM, holding potential -90 mV
  effect on inward barium current (in words): significantly enhanced

## [Cd+2] [Cd^2+]
[1]; 50 µM
  block of inward barium current (in words): blocked completely
[4]; 200 µM, ~50 pA current, depolarized from -90 mV
  block of inward barium current (in words): nearly completely blocked

Like-named read-outs stand apart in the source and are kept apart here.
